# Assay results from the supplement of paper PMC10037445.
# Whole data set: some 2,900 compounds, median “IRF Lucia reporter activity, fold change vs agonist alone” near 0.9, cut for the highest 2% near 2.8. This is one part of the list.
# Columns and labels:
# RAW-Dual [1] = experiment: IRF Lucia reporter activity, fold change vs agonist alone; cytotoxicity flag (confluency mask): not cytotoxic; higher = enhanced IRF activity
# Procedure, shortened: (§1)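 Library stock was pin-tooled at 50 nL into 384-well plates of RAW-Dual macrophages (50,000 cells/well, DMEM), followed 1 h later by a PRR agonist, and the cells were kept at 37 °C, 5% CO2. Supernatant collected after 20 hours was read for IRF by QuantiLuc luminescence and for NF-κB by QuantiBlue absorbance at 620 nm. Reporter activity is fold change over agonist-alone wells, and a well counted as cytotoxic when its IncuCyte confluency was below 70% of agonist controls in both mask sets.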
# RAW-Dual [2] = experiment: IRF Lucia reporter activity, fold change vs agonist alone; higher = enhanced IRF activity; conditions: library stock concentration (final ~1000-fold dilution): 10 mM, agonist: MPLA (TLR4) […]
# Procedure, shortened: as §1
# RAW-Dual [3] = experiment: IRF Lucia reporter activity, fold change vs agonist alone; cytotoxicity flag (confluency mask): cytotoxic (confluency <70% of control); higher = enhanced IRF activity
# Procedure, shortened: as §1
# [4] = agonist: 3'3'-cGAMP (STING) 10 ug/mL
# [5] = cytotoxicity flag (confluency mask): not cytotoxic
smiles,measurement,setting,value
COc1ccc2c(c1)/C(=C/c1cnc[nH]1)C(=O)N2 (library stock concentration (final ~1000-fold dilution): 10 mM),IRF Lucia reporter activity,RAW-Dual [1]; [4],0.0481
same,IRF Lucia reporter activity,RAW-Dual [1]; agonist: LPS (TLR4) 0.1 ug/mL,0.0276
COc1ccc2c(c1)[nH]c1c(C)nccc12,IRF Lucia reporter activity,RAW-Dual [2]; [5],0.143
COc1ccc2c(c1)[nH]c1c(C)nccc12 (library stock concentration (final ~1000-fold dilution): 10 mM),IRF Lucia reporter activity,RAW-Dual [1]; [4],0.238
same,IRF Lucia reporter activity,RAW-Dual [1]; agonist: LPS (TLR4) 0.1 ug/mL,0.158
COC12CC(COC(=O)c3cncc(Br)c3)CN(C)C1Cc1cn(C)c3cccc2c13 (configuration not stated) (library stock concentration (final ~1000-fold dilution): 10 mM),IRF Lucia reporter activity,RAW-Dual [1]; [4],0.646
same,IRF Lucia reporter activity,RAW-Dual [1]; agonist: LPS (TLR4) 0.1 ug/mL,1.62
COC12CC(COC(=O)c3cncc(Br)c3)CN(C)C1Cc1cn(C)c3cccc2c13 (configuration not stated),IRF Lucia reporter activity,RAW-Dual [2]; [5],1.47
CN(C)NC(=O)CCC(=O)O,IRF Lucia reporter activity,RAW-Dual [2]; [5],0.986
CN(C)NC(=O)CCC(=O)O (library stock concentration (final ~1000-fold dilution): 10 mM),IRF Lucia reporter activity,RAW-Dual [1]; [4],0.969
same,IRF Lucia reporter activity,RAW-Dual [1]; agonist: LPS (TLR4) 0.1 ug/mL,0.898
CCC1=CC2CN3CCc4c([nH]c5ccccc45)C(C(=O)OC)(C2)C13.O=C(O)C(O)C(O)C(=O)O (configuration not stated) (library stock concentration (final ~1000-fold dilution): 10 mM),IRF Lucia reporter activity,RAW-Dual [1]; [4],0.635
same,IRF Lucia reporter activity,RAW-Dual [1]; agonist: LPS (TLR4) 0.1 ug/mL,1.33
O=[N+]([O-])/C=C/c1ccc2c(c1)OCO2,IRF Lucia reporter activity,RAW-Dual [2]; cytotoxicity flag (confluency mask): cytotoxic (confluency <70% of control),0.0354
O=[N+]([O-])/C=C/c1ccc2c(c1)OCO2 (library stock concentration (final ~1000-fold dilution): 10 mM),IRF Lucia reporter activity,RAW-Dual [3]; [4],0.0523
same,IRF Lucia reporter activity,RAW-Dual [3]; agonist: LPS (TLR4) 0.1 ug/mL,0.0242
CC(C)N(CCC(C(N)=O)(c1ccccc1)c1ccccn1)C(C)C (configuration not stated),IRF Lucia reporter activity,RAW-Dual [2]; [5],1.03
CC(C)N(CCC(C(N)=O)(c1ccccc1)c1ccccn1)C(C)C (configuration not stated) (library stock concentration (final ~1000-fold dilution): 10 mM),IRF Lucia reporter activity,RAW-Dual [1]; [4],1
same,IRF Lucia reporter activity,RAW-Dual [1]; agonist: LPS (TLR4) 0.1 ug/mL,1.13
COc1ccc(CN2CCNCC2)c(OC)c1OC.Cl.Cl,IRF Lucia reporter activity,RAW-Dual [2]; [5],1.09
COc1ccc(CN2CCNCC2)c(OC)c1OC.Cl.Cl (library stock concentration (final ~1000-fold dilution): 10 mM),IRF Lucia reporter activity,RAW-Dual [1]; [4],1.15
same,IRF Lucia reporter activity,RAW-Dual [1]; agonist: LPS (TLR4) 0.1 ug/mL,1
C=C1CC2C(CCC3(C)C(=O)CCC23)C2(C)C=CC(=O)C=C12 (configuration not stated) (library stock concentration (final ~1000-fold dilution): 10 mM),IRF Lucia reporter activity,RAW-Dual [1]; [4],0.704
same,IRF Lucia reporter activity,RAW-Dual [1]; agonist: LPS (TLR4) 0.1 ug/mL,1.02
C=C1CC2C(CCC3(C)C(=O)CCC23)C2(C)C=CC(=O)C=C12 (configuration not stated),IRF Lucia reporter activity,RAW-Dual [2]; [5],1.27
CCCCCCC[n+]1ccc(-c2cc[n+](CCCCCCC)cc2)cc1,IRF Lucia reporter activity,RAW-Dual [2]; [5],0.9
CCCCCCC[n+]1ccc(-c2cc[n+](CCCCCCC)cc2)cc1 (library stock concentration (final ~1000-fold dilution): 10 mM),IRF Lucia reporter activity,RAW-Dual [1]; [4],0.953
same,IRF Lucia reporter activity,RAW-Dual [1]; agonist: LPS (TLR4) 0.1 ug/mL,1.08
CC(C)=CCOc1c2occc2cc2ccc(=O)oc12,IRF Lucia reporter activity,RAW-Dual [2]; [5],1.4
CC(C)=CCOc1c2occc2cc2ccc(=O)oc12 (library stock concentration (final ~1000-fold dilution): 10 mM),IRF Lucia reporter activity,RAW-Dual [1]; [4],1.4
same,IRF Lucia reporter activity,RAW-Dual [1]; agonist: LPS (TLR4) 0.1 ug/mL,1.5
O=c1ccc2ccc3occc3c2o1 (library stock concentration (final ~1000-fold dilution): 10 mM),IRF Lucia reporter activity,RAW-Dual [1]; [4],1.02
same,IRF Lucia reporter activity,RAW-Dual [1]; agonist: LPS (TLR4) 0.1 ug/mL,1.07
O=c1ccc2ccc3occc3c2o1,IRF Lucia reporter activity,RAW-Dual [2]; [5],1.03
COc1ccc(/C=C/c2cc(OC)cc(OC)c2)cc1 (library stock concentration (final ~1000-fold dilution): 10 mM),IRF Lucia reporter activity,RAW-Dual [1]; [4],0.395
same,IRF Lucia reporter activity,RAW-Dual [1]; agonist: LPS (TLR4) 0.1 ug/mL,0.965
COc1cc(C)[nH]c(=O)c1CNC(=O)c1c(C)n(C(C)C2CCN(CC(F)(F)F)CC2)c2ccccc12 (configuration not stated) (library stock concentration (final ~1000-fold dilution): 10 mM),IRF Lucia reporter activity,RAW-Dual [1]; [4],1.08
same,IRF Lucia reporter activity,RAW-Dual [1]; agonist: LPS (TLR4) 0.1 ug/mL,0.858
CC12CCC3C(CCC4=C(O)C(=O)CCC43C)C1CCC2=O (configuration not stated),IRF Lucia reporter activity,RAW-Dual [2]; [5],0.971
CC12CCC3C(CCC4=C(O)C(=O)CCC43C)C1CCC2=O (configuration not stated) (library stock concentration (final ~1000-fold dilution): 10 mM),IRF Lucia reporter activity,RAW-Dual [1]; [4],1.06
same,IRF Lucia reporter activity,RAW-Dual [1]; agonist: LPS (TLR4) 0.1 ug/mL,0.91
CC1=C(O)C(=O)C=C2C1=CC=C1C2(C)CCC2(C)C3CC(C)(C(=O)O)CCC3(C)CCC12C (configuration not stated) (library stock concentration (final ~1000-fold dilution): 10 mM),IRF Lucia reporter activity,RAW-Dual [1]; [4],0.011
same,IRF Lucia reporter activity,RAW-Dual [1]; agonist: LPS (TLR4) 0.1 ug/mL,0.0187
CC1=C(O)C(=O)C=C2C1=CC=C1C2(C)CCC2(C)C3CC(C)(C(=O)O)CCC3(C)CCC12C (configuration not stated),IRF Lucia reporter activity,RAW-Dual [2]; [5],0.0189
CCC1(c2c[nH]cn2)Cc2ccccc2C1.Cl,IRF Lucia reporter activity,RAW-Dual [2]; [5],1.08
CCC1(c2c[nH]cn2)Cc2ccccc2C1.Cl (library stock concentration (final ~1000-fold dilution): 10 mM),IRF Lucia reporter activity,RAW-Dual [1]; [4],1.08
same,IRF Lucia reporter activity,RAW-Dual [1]; agonist: LPS (TLR4) 0.1 ug/mL,1.3
